Consider 1 molecule from publication PMC5148169, “Insights into Basal Signaling Regulation, Oligomerization, and Structural Organization of the Human G-Protein Coupled Receptor 83” (PLoS ONE, 2016).

For the experiment, the target named is hGPR83_del17-60, N-terminal deletion variant of human GPR83, Flag-tagged (sandwich ELISA construct) (human, UniProt Q9NYM4 17-423, del17-60). Description: cell-based or functional assay.
Chain of UniProt Q9NYM4 (Q9NYM4 61-423, stated change not applied): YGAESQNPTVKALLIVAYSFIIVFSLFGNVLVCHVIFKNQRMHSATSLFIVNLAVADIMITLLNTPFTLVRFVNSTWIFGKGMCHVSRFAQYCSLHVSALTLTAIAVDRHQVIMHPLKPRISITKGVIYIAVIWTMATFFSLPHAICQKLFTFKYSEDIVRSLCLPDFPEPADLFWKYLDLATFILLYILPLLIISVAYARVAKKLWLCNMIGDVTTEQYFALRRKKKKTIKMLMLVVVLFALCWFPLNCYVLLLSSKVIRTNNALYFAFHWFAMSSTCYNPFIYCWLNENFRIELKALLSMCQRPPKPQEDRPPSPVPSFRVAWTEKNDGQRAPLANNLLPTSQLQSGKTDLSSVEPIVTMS

B1: human melanocortin-3 receptor, NHA-tagged (sandwich ELISA construct) (receptor, UniProt P41968 1-323, looked up)
chain: MNASCCLPSVQPTLPNGSEHLQAPFFSNQSSSAFCEQVFIKPEVFLSLGIVSLLENILVILAVVRNGNLHSPMYFFLCSLAVADMLVSVSNALETIMIAIVHSDYLTFEDQFIQHMDNIFDSMICISLVASICNLLAIAVDRYVTIFYALRYHSIMTVRKALTLIVAIWVCCGVCGVVFIVYSESKMVIVCLITMFFAMMLLMGTLYVHMFLFARLHVKRIAALPPADGVAPQQHSCMKGAVTITILLGVFIFCWAPFFLHLVLIITCPTNPYCICYTAHFNTYLVLIMCNSVIDPLIYAFRSLELRNTFREILCGCNGMNLG
B1: the “maximum cAMP accumulation after α-MSH on co-expression of hGPR83_del17-60 with hMC3R” value is roughly 1.5 fold.
